Experimental findings from PubChem BioAssay AID1347044 (National Center for Advancing Translational Sciences (NCATS), 2019) are described below.

The other results are listed elsewhere or left out. Further columns of the screen follow, without active or inactive calls. Most of these compounds were active or inconclusive in the main read-out, so they are no random draw. Words in brackets tell the shape of the fitted curve; partial curves, single points and poor fits give uncertain potencies.
Tags tell the direction and shape of the fitted curve.

The nature of the assay: Natriuretic polypeptide receptor (hNpr1) antagonism - Confirmation. Also: nearly all actives have a fitted effect of over 70% in size. The note with it: HEK293 hNpr1 cGMP GloSensor luminescence, ANP-stimulated; measured here: HEK-hNpr1 cytotoxicity, CellTiter-Glo. The procedure, abridged:
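HEK293 cells co-expressing hNpr1 and GloSensor cGMP sensor preloaded 2 h with 2% GloSensor reagent, compounds added 30 min at room temperature, then 0.1 nM hNppA for 20 min; luminescence read before and after agonist. Cytotoxicity counter-screen run.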
In the case of `Cc1ccc(C(=O)N2CCC3(CC2)CC(=O)Nc2ccccc2O3)cc1`, the CC50 – broadly, the concentration that lowers cell viability or growth by half – is 24.1 µM [falling, partial curve]. As to `O=C(CCC1CCCN(S(=O)(=O)c2cccc(F)c2)C1)NC1CCCCC1` (configuration not stated), the CC50 was 21.7 µM [falling, partial curve].

Consider `N#Cc1cccc(NC(=O)O[C@@H]2CO[C@H]3[C@@H]2OC[C@@H]3Nc2nccc(-c3cccc(F)c3)n2)c1`, for which the CC50 was 21.7 µM [falling, partial curve]. `OCC1CCCN(c2ccc(-c3nc(-c4cccc(C(F)(F)F)c4)no3)cn2)C1` (configuration not stated): the CC50 is 17.2 µM [falling, partial curve]. The same measure for `O=C(c1cccc(F)c1)N1CC(Oc2ccc(-c3noc(C4CCOCC4)n3)cc2)C1`: 15.3 µM [falling, partial curve]. As for `CCOC(=O)c1ccc(NC(=O)Cn2c(N(C)Cc3ccccc3)nc(C)cc2=O)cc1`, the CC50 was 27.3 µM [falling, single point]. The same measure for `CC1Oc2ccc(NC(=O)Cc3cccs3)cc2CN(Cc2ccc(Cl)cc2)C1=O` (configuration not stated): 43.2 µM [falling, single point]; for `COc1ccc(C2Cn3nnc(C(=O)N4CCN(C(=O)c5cccc(Cl)c5)CC4)c3CO2)cc1` (configuration not stated): 19.3 µM [falling, partial curve]. In the case of `Cc1csc(NC(=O)c2cnc3c(c2)N(C(=O)Cc2ccc(C(C)C)cc2)CCC3)n1`, the CC50 was 31.4 µM [falling, partial curve]. For `CC1(COc2cccnc2)COc2ccc(C(=O)NCc3ccc(F)cc3)cc2N1` (configuration not stated), the CC50 is 35.3 µM [falling, partial curve]. Take `Cc1ccc(OCc2nc(C3CCN(C(=O)CCc4nc5ccc(Cl)cc5[nH]4)CC3)no2)cc1`: the CC50 is 24.3 µM [falling, partial curve]. On to `CC(C)c1cc(C(=O)N2CCC(n3cc(-c4ccccn4)nn3)CC2)n(C)n1`, for which the CC50 was 21.7 µM [falling, partial curve]. With `O=C(NCc1cc(F)ccc1F)c1csc(N2CCN(c3ccccc3F)CC2)n1` the figure was 30.6 µM [falling, single point].

As to `Cc1ccc(CNC(=O)N2CCC(c3noc(-c4ccccc4)n3)C2)cc1` (configuration not stated), the CC50 was 43.2 µM [falling, single point]. With `COc1ccc(S(=O)(=O)N2CCc3c(C(=O)NCCc4ccccn4)cccc32)cc1` the figure was 34.3 µM [falling, single point]; with `COc1ccccc1C(=O)N1CCC(Cc2nc(-c3ccc(F)cc3)no2)CC1`, 12.2 µM [falling, partial curve]; with `Cc1nc(C2CC(O)C2)cc(N2CCN(c3nc4ccccc4s3)CC2)n1` (configuration not stated), 9.68 µM [falling, partial curve]. With `Cc1ccccc1C(=O)N1CCC2(CC1)N=C(c1ccc(Br)cc1)NO2` the figure was 30.6 µM [falling, single point]; with `CC(C)c1nc(-c2ccc(OC3CCN(C(=O)c4cc(F)ccc4F)C3)cc2)no1` (configuration not stated), 19.3 µM [falling, partial curve]; with `COc1cccc(-c2noc(CC3CCN(C(=O)c4cc(Cl)ccc4F)CC3)n2)c1`, 21.7 µM [falling, partial curve]. In the case of `O=C(CCc1ccccc1)N1CCC(Cc2nc(-c3ccc(F)cc3)no2)CC1`, the CC50 is 17.2 µM [falling, partial curve].

As for `Nc1nc(NCc2ccc(Cl)cc2Cl)cc(C2CC(O)C2)n1` (configuration not stated), the CC50 was 17.2 µM [falling, partial curve]. For the compound `Cc1cccc(CC(=O)N2CCCN(c3cc(-c4ccc(Br)cc4)[nH]n3)CC2)c1`, the CC50 was 43.2 µM [falling, single point]. Turning to `CCOc1ccc(CN2CCN(c3nc4ccccc4o3)CC2CCO)cc1` (configuration not stated), the CC50 was 24.3 µM [falling, partial curve].

Turning to `COc1ccc(-c2noc(CC3CCN(C(=O)Cc4cccc(C)c4)CC3)n2)cc1`, the CC50 was 19.3 µM [falling, partial curve]. For the compound `O=C(c1ccnc2ccccc12)N1CCC2(CC1)Nc1ccccc1NC2=O`, the CC50 was 34.3 µM [falling, single point]. In the case of `CCOc1ccc(C(=O)N2CCC(Cc3nc(-c4ccc(OC)cc4)no3)CC2)cc1OCC`, the CC50 is 9.68 µM [falling, partial curve]. In the case of `Cc1ccccc1CC(=O)N1CCC2(CC1)NC(=O)N(c1ccc(F)cc1)N2`, the CC50 is 24.3 µM [falling, partial curve]. Take `COc1ccc2ccc(OCc3nc(C(=O)N4CCCC(C(N)=O)C4)co3)cc2c1` (configuration not stated): the CC50 is 19.3 µM [falling, partial curve]. On to `Cc1nn2c(c1-c1ccccc1Oc1ccccc1)N(Cc1cccc(C#N)c1)CCC2`, for which the CC50 was 70.3 µM [falling, single point]. `COc1ccc(C2Cn3nnc(C(=O)N4CCN(C(=O)c5cccc(C)c5)CC4)c3CO2)cc1` (configuration not stated): the CC50 was 19.3 µM [falling, partial curve]. On to `O=C(CN1CCCc2nc(-c3ccncc3)ncc2C1=O)N1CCc2ccccc2C1`, for which the CC50 is 13.7 µM [falling, partial curve]. `O=C(NC1CCN(Cc2ccccc2)CC1)c1cc2n(n1)CC(c1ccc3c(c1)OCO3)OC2` (configuration not stated): the CC50 was 17.2 µM [falling, partial curve].

As to `Cc1cc(NC(=O)Cc2c[nH]c3ncc(-c4ccccc4C)cc23)n(C)n1`, the CC50 was 35.3 µM [falling, partial curve]. Take `Cn1nccc1C(=O)N1CCC2(CC1)OCCN(Cc1ccccc1F)C2=O`: the CC50 is 35.3 µM [falling, partial curve].

Regarding `Cc1ccc(C(=O)N2CCC3(CC2)N=C(c2ccc(Br)cc2)NO3)cc1`, the CC50 was 43.2 µM [falling, single point].

On to `CC(C)c1ccc(CC(=O)N2CCCc3ncc(C(=O)Nc4ccccn4)cc32)cc1`, for which the CC50 was 28 µM [falling, partial curve]. With `CC(C)Oc1ccc(CN2C[C@@H](CO)[C@H](c3ccncc3)C2)cc1` the figure was 27.3 µM [falling, partial curve]; with `CC(=O)c1c(C)nn(CC(=O)N2CCn3nc(Cc4ccccc4)cc3C2)c1C`, 19.3 µM [falling, partial curve]. Take `COc1ccc(-c2noc(CC3CCN(C(=O)CCCc4ccccc4)CC3)n2)cc1`: the CC50 was 30.6 µM [falling, single point]. As to `O=C(c1ccc(F)cc1Cl)N1CCC(n2cc(-c3nc(-c4ccccc4)no3)nn2)C1` (configuration not stated), the CC50 is 9.68 µM [falling, partial curve]. Consider `Cn1c(CNC(=O)c2ccc3nccn3c2)nc2cc(C(F)(F)F)ccc21`, for which the CC50 was 30.6 µM [falling, single point]. For `CC(C)c1noc(-c2cn(C3CCN(C(=O)c4cccc(Cl)c4)C3)nn2)n1` (configuration not stated), the CC50 was 24.3 µM [falling, partial curve].

`COc1ccc(C(=O)N2CCC3(CC2)NC(=O)N(Cc2ccc(F)cc2)C3=O)cc1F`: the CC50 is 21.7 µM [falling, partial curve]. As to `CSc1cccc(NC(=O)Cn2c(N3CCC(C)CC3)nc(C)cc2=O)c1`, the CC50 was 17.2 µM [falling, partial curve]. For `CCc1ncc2c(=O)n(Cc3ccc(OC)cc3)ccn12`, the CC50 is 9.68 µM [falling, partial curve]. As to `O=C(Cc1c[nH]c2ncc(-c3ccccc3)cc12)N1CCCC1`, the CC50 is 31.4 µM [falling, partial curve, poor fit]. Consider `O=C(NCCOc1ccccc1)c1cnc2n1CCN(Cc1c[nH]c3ccccc13)CC2`, for which the CC50 is 31.4 µM [falling, partial curve]. For `Cc1ccc2c(c1)nc1n2[C@@H](CNCc2ccccc2)COC1`, the CC50 was 35.3 µM [falling, partial curve].

Consider `CC(=O)c1cccc(NC(=O)O[C@@H]2CO[C@H]3[C@@H]2OC[C@@H]3NC(=S)NC2CCCCC2)c1`, for which the CC50 was 27.3 µM [falling, single point]. On to `O=C(Nc1ccc(-c2cccc(F)c2)cc1)C1CCCN(C(=O)c2ccncc2)C1` (configuration not stated), for which the CC50 was 17.2 µM [falling, partial curve].

Regarding `O=C(c1ccccc1)N1CCc2sc(C(=O)N3CCN(c4ccc(F)cc4)CC3)cc2C1`, the CC50 was 17.2 µM [falling, partial curve].

On to `COc1ccc(OC)c(CNC(=O)c2cccc3c2CCN3C(=O)c2ccc(F)cc2)c1`, for which the CC50 was 24.3 µM [falling, partial curve].

Regarding `CCN(CC)C(=O)c1cc2c(s1)CCC(C(=O)Nc1ccc(OC)c(F)c1)C2` (configuration not stated), the CC50 is 21.7 µM [falling, partial curve]. As to `CC(=O)c1cccc(NC(=O)O[C@@H]2CO[C@H]3[C@@H]2OC[C@@H]3NC(=S)Nc2cccc3ccccc23)c1`, the CC50 is 19.3 µM [falling, partial curve]. Turning to `CC(C)c1ccc(CC(=O)N2CCCc3ncc(C(=O)Nc4cccc(Cl)c4)cc32)cc1`, the CC50 was 15.3 µM [falling, partial curve]. On to `Cn1nccc1C(=O)N1CCCN(CCc2ccccc2)c2ccccc21`, for which the CC50 was 21.7 µM [falling, partial curve]. `COc1ccc(C2Cn3nnc(C(=O)N4CCN(C(=O)Cc5ccccc5Cl)CC4)c3CO2)cc1` (configuration not stated): the CC50 is 19.3 µM [falling, partial curve]. Turning to `C[S+](=O)([O-])CCn1ncc2cc(OCC3CCN(c4ncc(F)cn4)CC3)ccc21`, the CC50 is 9.94 µM [falling, full curve]. With `C1CCC(COCCc2noc(C3CNC3)n2)C1` the figure was 6.11 µM [rising, partial curve, poor fit]; with `CC1(NC(=O)C2CC2)CN(c2ccc(Oc3ccccc3)cc2)C1`, 28 µM [falling, partial curve]. Regarding `O=C(c1ccccc1)N1CCNc2cnc(Nc3cccc(C(F)(F)F)c3)nc2C1`, the CC50 is 31.4 µM [falling, partial curve].
